Measured values taken from patent publication US9975943B2, “Polypeptides” (AFFIBODY AB, priority 2013, dated 2018).

What was measured:
[1] = CD analysis with variable temperature measurement; assay type: physicochemical; conditions: His6-tagged Z variants 0.5 mg/ml in PBS; CD at 221 nm, 20 to 90° C.
Method: Purified His6-tagged Z variants were diluted to 0.5 mg/ml in PBS. For each diluted Z variant, a CD spectrum at 250-195 nm or 250-190 nm was obtained at 20° C. In addition, a variable temperature measurement (VTM) was performed to determine the melting temperature (Tm). In the VTM, the absorbance was measured at 221 nm while the temperature was raised from 20 to 90° C., with a temperature slope of 5° C./min. A new CD spectrum was obtained at 20° C. after the heating procedure in order to study the refolding ability of the Z variants. The CD measurements were performed on a Jasco J-810 spectropolarimeter (Jasco Scandinavia AB) using a cell with an optical path-length of 1 mm.

[2] = target: T1, murine FcRn-eGFP transduced HeLa cells (Mus musculus, UniProt Q61559, INS109QKRG); assay: Blocking of IgG-FcRn immunofluorescence staining (Example 5); assay type: cell-based; conditions: 100 nM Alexa647 mouse IgG; 1-1000 nM His6-tagged Z variant; pH 6.0
T1 construct: expressed in transfected cells; host or cells: HeLa cervix adenocarcinoma cells (lentiviral transduction), formaldehyde-fixed and saponin-permeabilised
T1 sequence (Q61559 with tags, fused parts or gaps INS109QKRG): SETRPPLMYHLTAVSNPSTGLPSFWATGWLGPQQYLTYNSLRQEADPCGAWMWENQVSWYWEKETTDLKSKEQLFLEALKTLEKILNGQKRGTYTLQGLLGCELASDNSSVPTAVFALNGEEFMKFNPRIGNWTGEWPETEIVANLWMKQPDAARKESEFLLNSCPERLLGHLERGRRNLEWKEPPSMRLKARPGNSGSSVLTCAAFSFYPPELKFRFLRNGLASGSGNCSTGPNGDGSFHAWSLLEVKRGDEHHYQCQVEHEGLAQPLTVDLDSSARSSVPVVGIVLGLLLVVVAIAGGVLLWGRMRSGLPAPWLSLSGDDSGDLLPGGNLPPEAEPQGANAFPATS
T1 sequence (P01887 21-119 partner): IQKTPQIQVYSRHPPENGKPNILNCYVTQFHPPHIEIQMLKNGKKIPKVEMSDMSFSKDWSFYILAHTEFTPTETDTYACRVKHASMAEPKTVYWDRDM
Method: Human or murine FcRn-eGFP transduced HeLa cells were prepared as described in Example 4. […] The cells were incubated for 1 h at 37° C. on a shaker in the dark, washed with 2×100 μl PBS-casein pH 6.0 and re-suspended in 180 μl of PBS, pH 6.0, plus 1% BSA. Data from 10,000 cells/well (except somewhat fewer cells for mouse 100 nM mIgG-Alexa647) were obtained using a Gallios Flow Cytometer (Beckman Coulter) and the data was analyzed using Kaluza software (Beckman Coulter).

[3] = target: T2, mouse FcRn-eGFP transduced HeLa cells (Mus musculus, UniProt Q61559, INS109QKRG); assay: Flow cytometry binding of Alexa647 labeled Z variants to FcRn-eGFP HeLa cells; assay type: cell-based; conditions: 620 nM Alexa647 labeled His6-tagged Z variant; pH 6.0
T2 construct: expressed in transfected cells; host or cells: HeLa cervix adenocarcinoma cells (lentiviral transduction), formaldehyde-fixed and saponin-permeabilised
T2 sequence (Q61559 with tags, fused parts or gaps INS109QKRG): T1 sequence (Q61559 with tags, fused parts or gaps INS109QKRG)
T2 sequence (P01887 21-119 partner): T1 sequence (P01887 21-119 partner)
Method: (§1) hFcRn-eGFP and mFcRn-eGFP HeLa cells were harvested by trypsination and washed twice in PBS at pH 6.0 before counting. 100,000 cells were pipetted per well of a v-bottomed 96 well plate (Nunc, cat no 277143) and the cells in the plate were subsequently pelleted at 1,700 rpm for 4 min at 4° C. The supernatants were removed and the cells were fixed with 50 μl of 2% formaldehyde (Sigma Aldrich, cat. no. F8775) in PBS at pH 6.0 for 10 min at RT. […] Transduced HeLa cells, incubated with buffer alone, were used as control. The cells were incubated for 1 h at 8° C. on a shaker in the dark, washed with 2×100 μl PBSC and resuspended in 180 μl of PBS pH 6.0 plus 1% BSA (fraction V, Merck, cat. no. 1.12018.0100). 10,000 cells/well were analyzed in a Gallios Flow Cytometer (Beckman Coulter) and the data was analyzed using Kaluza software (Beckman Coulter).

[4] = target: T3, human FcRn-eGFP transduced HeLa cells (Homo sapiens, UniProt P55899); assay: as above; assay type: cell-based; conditions: 620 nM Alexa647 labeled His6-tagged Z variant; pH 6.0
T3 construct: expressed in transfected cells; host or cells: HeLa cervix adenocarcinoma cells (lentiviral transduction), formaldehyde-fixed and saponin-permeabilised
T3 sequence (P55899 24-365): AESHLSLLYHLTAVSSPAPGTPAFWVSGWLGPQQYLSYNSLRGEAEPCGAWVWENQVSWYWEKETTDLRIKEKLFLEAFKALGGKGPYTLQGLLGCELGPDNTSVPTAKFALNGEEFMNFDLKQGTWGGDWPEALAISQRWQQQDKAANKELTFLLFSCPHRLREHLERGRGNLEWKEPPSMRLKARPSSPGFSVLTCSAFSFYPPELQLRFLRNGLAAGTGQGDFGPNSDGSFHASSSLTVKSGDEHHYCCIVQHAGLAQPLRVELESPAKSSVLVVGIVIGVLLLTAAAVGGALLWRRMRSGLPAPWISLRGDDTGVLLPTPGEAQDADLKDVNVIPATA
T3 sequence (P61769 21-119 partner): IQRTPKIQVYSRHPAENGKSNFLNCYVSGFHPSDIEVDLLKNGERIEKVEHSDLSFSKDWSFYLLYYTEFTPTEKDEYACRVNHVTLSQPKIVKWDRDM
Method: as §1

[5] = target: T3, human FcRn-eGFP transduced HeLa cells; assay: Blocking of IgG-FcRn immunofluorescence staining, comparison with IVIg and SCIg (Example 10); assay type: cell-based; conditions: 50 nM Alexa647 human IgG; 0.1-1000 nM blocker; pH 6.0
Method: Human or murine FcRn-eGFP transduced HeLa cells were prepared as described in Example 4. […] The cells were incubated for 1 h at 37° C. in the dark, washed with 2×100 μl McIlvanes, pH 6.0, plus 2.5% FCS (Ultra low IgG) pH 6.0 and re-suspended in 180 μl of McIlvanes, pH 6.0, plus 1% BSA. Data from 10,000 GFP/FcRn positive cells were obtained using a FACS Calibur (Beckman Coulter) and the data was analyzed using Flowing software 2.5.0 (Turku University).

[6] = target: human FcRn (Homo sapiens, UniProt P55899); assay: Biacore binding at pH 6.0 and dissociation at pH 6.0 vs pH 7.4; set-up: made in house; host or cells: human SKOV-3 cells, lentivirally transduced, secreted; purified on immobilized human IgG; conditions: comparison among the seventeen Z variants
human FcRn, sequence (P55899 24-290): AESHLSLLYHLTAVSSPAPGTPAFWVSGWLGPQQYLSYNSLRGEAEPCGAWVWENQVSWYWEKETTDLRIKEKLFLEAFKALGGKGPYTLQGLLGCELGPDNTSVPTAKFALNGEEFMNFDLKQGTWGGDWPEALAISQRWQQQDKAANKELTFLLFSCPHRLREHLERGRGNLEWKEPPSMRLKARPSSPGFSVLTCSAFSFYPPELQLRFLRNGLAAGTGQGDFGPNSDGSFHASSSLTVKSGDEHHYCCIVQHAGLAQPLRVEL
human FcRn, sequence (P61769 21-119 partner): as the sequence (P61769 21-119 partner) above
Method: The interaction of FcRn binding His6-tagged Z variants with human FcRn was analyzed in a Biacore 2000 instrument (GE Healthcare). Human FcRn was immobilized in a flow cell on the carboxylated dextran layer of a CM5 chip surface (GE Healthcare). The immobilization was performed using amine coupling chemistry according to the manufacturer's protocol and using HBS-EP (GE Healthcare) as running buffer. One flow cell surface on the chip was activated and deactivated for use as blank during analyte injections. In the two binding experiments presented below, McIlvaines phosphate-citrate buffer pH 6.0 supplemented with 0.005% Tween-20 (0.005% PCT) was used as running buffer. In all experiments, a flow rate of 50 μl/min was used.
In one experiment, the dissociation at pH 6.0 was compared to the dissociation at pH 7.4. His6-tagged Z variants and a human monoclonal IgG1 were diluted in running buffer to a final concentration of 250 nM or 2.5 nM, respectively, and injected over the FcRn chip for 1 minute using the co-inject procedure. The second injection of the co-inject procedure, representing the dissociation phase of the interactions, contained either running buffer (pH 6.0) or 0.005% PCT pH 7.4. […] IgG was allowed to dissociate for 4 minutes before equilibration. […] The results were analyzed in BiaEvaluation software 4.1 (GE Healthcare). […]

For “Z07918: FcRn binding Z variant, 58 amino acid residues, from phage display selection (VDAKYAKEQDAAAHEIRWLPNLTFDQRVAFIHKLADDPSQSSELLSEAKKLNDSQAPK; Engineered FcRn binding polypeptide)”, the “Tm (° C.)” value [1] was 49 °C, the “blocking of mIgG binding to mFcRn” value [2] was “also blocked mIgG binding to mFcRn (FIG. 6, Panel B) although less efficiently compared to hIgG-binding” and the “binding to HeLa cells displaying murine FcRn-eGFP” value [3] was “capable of binding”. The “binding to HeLa cells displaying human FcRn-eGFP” value [4] was “capable of binding”, the “blocking of hIgG binding to hFcRn” value [5] was “effectively blocked hIgG binding to hFcRn to a similar extent as IVIg or SCIg” and the dissociation curves [6] was “slowest dissociation curves”.
